Usually % Inhibition stands for the drop in the measured response relative to a control, in per cent.

Out of some 150,000 compounds screened, about 540 (0.36%) showed an effect of 50% or more. The list shows a part of the results.

The subject of the experiment is Plasmodium falciparum. The experiment is described as follows: Primary screen in NF54 nanoGlo assay, in single point, at 2uM, 72h; a lower Z score goes with more inhibition. The experiment is classed as functional, Erythrocyte. As to conditions: timepoint 72 hour.
As for `COc1ccnc(N2CCn3ccnc3C2)n1`, the “% Inhibition” value was determined as 7% and the Z score was -1.54.

For `COc1cccc(N2CCN(C(=O)c3ccc(C)c(-n4nnc5cccnc54)c3)CC2)c1`, the “% Inhibition” value is reported as -10% and the Z score came to 1.87.

In the case of `CN(CC1CCC1)C(=O)NCCOCC1CC1`, the “% Inhibition” value is recorded as -5% and the Z score amounted to 0.46.

As to `CC(C)C(=O)N1CCCN(C(=O)C2CC3CCC2C3)CC1` (centres undefined), the “% Inhibition” value was 1% and the Z score is -0.18.

In the case of `Cc1cccc(-c2nnc3c4ccc(Cl)cc4nc(N4CCN(Cc5cccc(F)c5)CC4)n23)c1`, the “% Inhibition” value is reported as -13% and the Z score is 1.19.

As for `N#Cc1ccnc(N2CC[C@H]3[C@H](CCC(=O)N3CCc3c[nH]cn3)C2)c1`, the “% Inhibition” value was -8% and the Z score is 1.43.

In the case of `COCCCN(Cc1ccc(OC)cc1)c1ncnc2oc(C)nc12`, the “% Inhibition” value is listed as 10% and the Z score is recorded as -1.31.

In the case of `CCCc1nnc(NC(=O)N2CCC3CCCC32)s1` (centres undefined), the “% Inhibition” value is reported as -5% and the Z score was determined as 0.7.

For `O=C(NCCCN1CCCC1)[C@H]1CCCN(c2nc3cccnc3s2)C1`, the “% Inhibition” value is -26% and the Z score stood at 2.27.

In the case of `CN1CCC(NC(=O)c2cc(-c3ccccc3Cl)nc3ccccc23)CC1`, the “% Inhibition” value is 6% and the Z score is on record as -0.79.

Take `CCn1ccnc1[C@H]1CCCN(C(=O)c2ccc(N(C)C)cc2)C1`: the “% Inhibition” value is listed as -8% and the Z score was 1.12.

As to `Cn1cc(C(=O)N2CCCO2)c(C(C)(C)C)n1`, the “% Inhibition” value is -6% and the Z score is 0.58.

On to `Cc1ccc(C[C@H](NC(=O)c2cc(C#N)c[nH]2)c2cccnc2)cc1`, for which the “% Inhibition” value is recorded as -13% and the Z score was 1.74.

For `COCC1(F)CCN(Cc2c(-c3ccc(C)cc3C)nc3ccccn23)CC1`, the “% Inhibition” value is reported as -7% and the Z score amounted to 0.9.

`COC[C@H]1[C@@H](NC(=O)c2cc(C)nc(C)n2)[C@H]2CCO[C@H]21`: the “% Inhibition” value is recorded as -4% and the Z score amounted to 0.46.

Regarding `Cc1ccc(-c2noc(CCC(=O)NCc3cccnc3)n2)cc1`, the “% Inhibition” value is listed as -17% and the Z score is 1.97.

As for `Cc1noc(C)c1CC(=O)N[C@@H](C)C1CC1`, the “% Inhibition” value is recorded as 6% and the Z score is reported as -1.07.

In the case of `COc1ccc(-c2ccnc(N[C@H]3CO[C@H]4[C@@H]3OC[C@H]4OCC(=O)N(C)C)n2)cc1`, the “% Inhibition” value is -7% and the Z score was determined as 0.86.

On to `OCC#Cc1csc(CNCCN2CCCC[C@@H]2CO)c1`, for which the “% Inhibition” value is -5% and the Z score amounted to 0.93.

For `CN1C(=O)CCCC[C@H]1C(=O)N1CC=C(c2ccccc2)CC1`, the “% Inhibition” value is -9% and the Z score is recorded as 1.04.

For `CCn1ccc(CN2CCC3(CCC(=O)N(C4CC4)C3)CC2)n1`, the “% Inhibition” value turned out to be 12% and the Z score is listed as -1.64.

On to `Clc1ccc(CNc2nc(N3CCOCC3)nc(N3CCOCC3)n2)cc1`, for which the “% Inhibition” value is on record as -3% and the Z score came to 0.41.

For the molecule `Cn1cc(NC(=O)c2ccc3nncn3c2)c(C(F)(F)F)n1`, the “% Inhibition” value stood at 0% and the Z score is given as -0.06.

With `CCCN(C(=O)[C@H]1CCCN(C2CCN(Cc3cccnc3)CC2)C1)C1CCCC1`, the “% Inhibition” value was -5% and the Z score turned out to be 0.47.

Take `Cc1ccc(CNC(=O)c2cc3c(s2)CCC3)cn1`: the “% Inhibition” value was 13% and the Z score was -1.7.

As for `CC(C)(C)OC(=O)N1C2CCCC1CN(Cc1cc[nH]n1)C2`, the “% Inhibition” value is recorded as -6% and the Z score stood at 0.75.

Regarding `COc1nccnc1O[C@H]1CCN(C(=O)c2cnc3ccccc3n2)C1`, the “% Inhibition” value is reported as -2% and the Z score was 0.25.

Turning to `Cc1c(CNCc2cc3ccc(F)cc3n(C)c2=O)cnn1C`, the “% Inhibition” value is -1% and the Z score is recorded as 0.08.

For `COCCN(C)[C@H]1CN(C(=O)c2ccc3c(c2)CCO3)C[C@@H]1O`, the “% Inhibition” value is given as -6% and the Z score was found to be 0.84.

Take `CC(C)Oc1ncccc1C(=O)NC1CCCC1CNS(C)(=O)=O` (centres undefined): the “% Inhibition” value was -7% and the Z score is 0.66.

In the case of `CC(OC(=O)C1CC(=O)N(C2CCCC2)C1)C(=O)Nc1ccc(S(N)(=O)=O)cc1` (centres undefined), the “% Inhibition” value is on record as -2% and the Z score worked out at 0.33.

As for `Cc1cc(C)cc(CN2CCCN(c3ccc(NC(=O)Cc4cccs4)cc3)C2=O)c1`, the “% Inhibition” value is on record as -7% and the Z score is 1.39.

`CC(=O)NC[C@H]1CCCN(c2nc3c(s2)c(C)nn3C)C1`: the “% Inhibition” value was -10% and the Z score is recorded as 1.68.

`O[C@@]1(C(F)(F)F)CCN(c2noc(-c3ccccc3)n2)C1`: the “% Inhibition” value is recorded as -1% and the Z score is reported as 0.16.

Turning to `COCC(=O)Nc1ccc(N(C)C)c(CN(C(=O)NC(C)C)[C@@H](C)c2ccccc2)c1`, the “% Inhibition” value is given as -15% and the Z score was determined as 2.85.

As to `CC(C)c1ccc(OC[C@H]2CN(C(=O)Cc3ccccc3)CCO2)cc1`, the “% Inhibition” value was -8% and the Z score stood at 1.19.

As for `CCc1nnc(NC(=O)C2(C)CC2F)s1` (centres undefined), the “% Inhibition” value is -1% and the Z score was 0.16.

With `CCCCN(C)C(=O)c1cc2c(n1C)CCN(Cc1cccc(F)c1)C2`, the “% Inhibition” value is listed as -7% and the Z score was determined as 1.06.

For `CCc1c2c(=O)n(-c3nc4ccccc4s3)[nH]c2cc(=O)n1CCCN1CCOCC1`, the “% Inhibition” value amounted to 81% and the Z score is given as -10.48.

For `CN(C)c1ccnc(CNS(=O)(=O)c2ccccc2)n1`, the “% Inhibition” value is 6% and the Z score is -0.96.

With `Cc1nc(N2CCCC[C@@H]2C)c2c(C)c(C(=O)N(C)C3CCCCC3)sc2n1`, the “% Inhibition” value is given as -9% and the Z score was determined as 1.39.

With `C[C@H]1CNC(=O)CCN1Cc1ccccc1Cn1cccn1`, the “% Inhibition” value was -2% and the Z score stood at 0.37.

These data come from ChEMBL document CHEMBL4888484, “Replenishing the malaria drug discovery pipeline: Screening and hit evaluation of the MMV Hit Generation Library 1 (HGL1) against asexual blood stage Plasmodium falciparum ,using a nano luciferase reporter read-out” (2022).
